Data taken from the supplement of paper PMC10126150.
Values marked as one replicate rest on one cluster of the flow cell; about a third of the high ones do not repeat.

System: ATP
Assay: switch fluorescence ratio, 500 uM ATP over buffer (Cy3 cluster intensity, sum of 5 cycles each) (fold (ratio)); higher = stronger signal-on switching upon ATP binding; sequences stand for … in TCGTCGGCAGCGTCAGATGTGTATAAGAGACAGTTTTTTTTTTTTTTTTTTTTTTTTT…TC
Details: aptamer strand: ATP DNA aptamer (quencher-CACCTGGGGGAGTATTGCGGAGGAAGG + anchor), 100 nM annealed; ATP concentration: 500 uM; one replicate
Summary of the method: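 Clusters carrying Cy3-labelled switching strands on a modified Illumina MiSeq flow-cell were annealed to 100 nM quencher-labelled ATP aptamer and imaged in selection buffer. They were imaged again after 15 min with 500 uM ATP at 22 °C, over five buffer/ATP cycles with NaOH stripping and re-annealing in between. For each cluster, the fluorescence ratio is the summed Cy3 intensity of the target cycles divided by that of the buffer cycles, averaged per switch-domain sequence. Clusters outside 100-1000 RFU were left out.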
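Further: ATP exposure 15 min at 22 °C before imaging.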

Sequence | switch fluorescence ratio
ATTGGGCAGA | 1
GCTTGGGCTG | 0.999
GTTAGTCTGG | 1
AGTAGATAGA | 0.996
AATTCCCGGT | 1.03
AAAACCTG | 1.03
GGGCGGGTTC | 1.04
ATTGCATGGC | 1.05
CCTTGAGAAA | 1.01
TATCCTCCTA | 1.06
AGAAGGTCTG | 0.992
TGGAATTTTG | 1
AATACTGAGT | 1.02
TCCCTTTAAA | 0.989
ACAAGAGAAT | 1.02
TTTAGGCAAC | 1.06
TTTTTAGATG | 0.991
TCAAGTGGGA | 0.983
TGCCGCGGCT | 1
GATAAGAAAT | 1.02
GGCTTCAAAT | 1.01
GCTTATAGCT | 0.982
TTTTGCTAGA | 1.01
TATTGTCCTG | 1.04
GGTGTATATC | 0.976
CGTTGAGGCT | 1.02

Sequence | switch fluorescence ratio
CAGGGATGTC | 1.04
TTATCCTCCG | 3.33
CTCAGATG | 1.02
TCGCTGATGG | 1.03
TGAAGTGTCA | 1.06
CTTGTTCGAT | 0.949
ATATGGGGTA | 0.903
CGATTTGAGA | 1.01
TGAATGGAC | 1.11
AGTGCTATGG | 1
CGCGAAAGAT | 1.01
TCCCGCGGGA | 1.03
TGGGGACTGC | 1.05
CCAAACATAG | 1.08
GCGAGGCATA | 1.98
CTACAATGCA | 1.04
TAAATTTGCC | 1.07
GTGGGGTTCT | 0.919
TAATGGTGG | 0.991
TTCGGTGTAG | 1.04
TCATGGACAT | 1.01
TGACTGGGAG | 1.02
TATCAACTCG | 0.998
GCCTATTCGC | 0.953
GTAAACTACT | 1.02
GTTCACCTTG | 0.937

Sequence | switch fluorescence ratio
TCCACTTGGA | 1
GTATCCCGCT | 1.01
ACACCACGCG | 1.33
CGTCGATCGG | 1.03
GACTATAAAT | 1.04
ATCATAGTAA | 1.01
AGAGAATTGA | 0.974
GATTCATCCT | 1.08
TTCGGGTTCC | 1.3
AAGTCATTGG | 0.977
ACGCTGCATG | 1.16
GCCGGGTCGT | 0.961
TTTCCTCGCG | 2.48
TCAAACCTGT | 1.03
GGCTCCAAGT | 1.02
GCTCCTTTAG | 1.04
CCCAACACAG | 1.07
AAGATTCGTT | 0.984
AACTCTCTGG | 0.952
GTATGAGCGG | 0.955
GCCACTGGCA | 0.998
ATGTCGCATT | 1.05
CTGCCAAGGG | 1.08
CCTGTAAGCG | 1.16
GCCTGAGGGG | 1.38
ATTTATAAAC | 0.966

Sequence | switch fluorescence ratio
ATCAATACTT | 1.14
CTCTTCCTGC | 1.26
TTTAAACGGC | 1.09
AAAAGGAAAT | 1.02
TAGATGCTGG | 0.988
CACGCGGGA | 0.996
AAAACCTAG | 1.02
TCCTGATAAC | 1.07
TTATGGTTGT | 1.07
TAAGCCTTCA | 2.24
CGGGCGTTGC | 1.07
TGTTCTTTGC | 1.02
CGTTGAGTAG | 1.01
ACTATGTCCA | 0.975
TGAGCGCGAG | 0.999
TGTAGAGATT | 1.02
TTCTCAACCT | 1.67
CGCGGGTTCG | 1.04
AAGTGTCACG | 0.999
AAAATAAGAT | 0.965
TTTTGTCCTC | 1.02
ACGGCATATT | 1.09
GAGTACCTGC | 0.918
TGATGAGAGA | 0.975
TAACTTACGA | 1.32
TGCTTCTTCT | 2.25

Sequence | switch fluorescence ratio
CTCTGCGCTC | 4.25
GTTGATGGG | 0.977
TCCGTGTGTC | 1.06
AGAATTTCTG | 0.976
TCTAGTCCTA | 1.02
AACTTAATAA | 1.09
GAGTTTACTG | 0.981
CACATGTTGC | 1.01
TCTGAGTCAG | 0.993
CCGTAGGTCT | 1.07
TAGAGATACT | 1
TAGATAGTCG | 1.02
TCGCATGAAC | 2.8
CCGGGTGGGA | 1.03
CAGGGCCTCC | 1.01
TTTAAGTGTG | 0.967
GGAGTTGAGT | 0.994
TTTCTCACA | 1.09
GTCGGAGTTG | 0.962
ACGATTGCA | 1.34
TAAAACTATT | 1
GGTATTTTTC | 1.03
GGAATCTCTG | 0.973
CACTGTGTCT | 1.03
ATCCCCTATG | 1.12
AGTAAGCAAA | 1.04

Sequence | switch fluorescence ratio
CCGTGATATT | 2.54
AAGGCAACAG | 1.1
GCGCGTAGAT | 1.04
TTTCGTTTGT | 1.12
CCCCGTTTGT | 1.26
AAAGCGGGTT | 1.07
AAAGCACATA | 1.17
GATCTAACT | 0.992
TTAGCCCTGT | 0.989
GTAATGAAAA | 0.995
CGCATCAATC | 2.25
AAAATCTTCT | 1.04
TTGAAGCATA | 1.19
TTCACTGGCC | 1.03
ATTGGACATT | 1.02
AGGTTTCGCT | 0.976
TCGGGGACCC | 1
TCAAGCATTG | 0.968
TAAACTTTGG | 1
CGTAGATGGA | 1.04
TCGAAGCTGA | 2.28
GCGACAAATC | 1.27
TTTCTGGTG | 1.02
